Measured values from PubChem BioAssay AID588342 (National Center for Advancing Translational Sciences (NCATS), 2011).
Screen size: about 360,000 compounds; about 25,000 (6.9%) were called active. The inconclusive results got no clear call from the source; some entries with a clear call stand among them for comparison. The call rests on the fitted dose curve; in most records, active means well fitted inhibition curve with a large enough effect; inconclusive means small, poorly fitted or top-dose-only effect; inactive means flat fitted curve, though single readings scatter. A potency beside an inconclusive call is a rough fit, not a confirmed value.

Each compound was assayed against Luciferin 4-monooxygenase (Photinus pyralis) (UniProt P08659) (assay: qHTS profiling assay for firefly luciferase inhibitor/activator using purifed enzyme and Km concentrations of substrates (counterscreen for miR-21 project)). Conditions: purified FLuc, luminescence inhibition; series mostly up to 57.5 µM.
Method in brief: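 Purified P. pyralis luciferase (10nM final) with 10uM D-luciferin and 10uM ATP (Km levels) in 50mM Tris acetate pH 7.5, 10mM Mg acetate, 0.01% Tween-20, 0.05% BSA; qHTS 6-point titration, ~60 µM downward; luminescence read.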
Further: nearly all actives have a fitted effect of over 55% in size.
Potency means the concentration at half of the fitted maximal effect; tags describe the fitted curve by direction and shape.

UniProt P08659, sequence (P08659 whole entry, looked up): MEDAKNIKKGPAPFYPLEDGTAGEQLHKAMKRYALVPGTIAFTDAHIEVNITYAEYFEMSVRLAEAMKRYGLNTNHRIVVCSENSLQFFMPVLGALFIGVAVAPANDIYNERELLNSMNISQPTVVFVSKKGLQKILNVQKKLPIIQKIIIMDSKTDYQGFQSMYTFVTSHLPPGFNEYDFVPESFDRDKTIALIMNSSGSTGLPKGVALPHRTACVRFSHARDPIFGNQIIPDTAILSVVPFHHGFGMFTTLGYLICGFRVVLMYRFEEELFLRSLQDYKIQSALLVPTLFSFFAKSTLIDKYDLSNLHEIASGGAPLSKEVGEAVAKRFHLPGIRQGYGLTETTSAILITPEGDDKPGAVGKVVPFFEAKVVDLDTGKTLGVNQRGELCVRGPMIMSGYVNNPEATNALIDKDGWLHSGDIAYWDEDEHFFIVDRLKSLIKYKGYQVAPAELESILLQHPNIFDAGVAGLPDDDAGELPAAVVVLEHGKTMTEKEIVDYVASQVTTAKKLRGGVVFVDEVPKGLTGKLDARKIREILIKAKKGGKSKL

Compound | Potency
COc1ccc(S(=O)(=O)N2CCOCC2)cc1NC(=O)COC(=O)CCOc1ccc(C)cc1 | inconclusive: 26.9 µM [inhibitor, single point]
O=C(NCC1CCCO1)c1c[nH]c2ccc(S(=O)(=O)Nc3cccc(C(F)(F)F)c3)cc2c1=O (configuration not stated) | inconclusive: 7.57 µM [inhibitor, full curve]
O=C(Nc1ccccc1)Nc1ccc(C(=O)N2CCOCC2)cc1 | active: 13.5 µM
CC(=O)C1=C(c2ccccc2)OC(N)=C(C#N)C1c1ccc(O)cc1 (configuration not stated) | inconclusive: 23.9 µM [inhibitor, partial curve, poor fit]
N#Cc1cn(-c2ccccc2)nc1-c1ccco1 | inconclusive: 13.5 µM [inhibitor, partial curve]
O=C(c1cc(-c2ccc3c(c2)OCO3)on1)N1CCCCC1 | active: 0.849 µM
Cc1cc(NC(=O)CCC(=O)N(CC(C)C)C(C(=O)NC(C)(C)C)c2ccccc2Cl)no1 (configuration not stated) | inactive
Cc1cccc(N2C(=O)CC(Sc3nnc(C)s3)C2=O)c1 (configuration not stated) | inconclusive: 21.3 µM [inhibitor, partial curve, poor fit]
CC/C(=N\OC(=O)c1ccc(OC(C)C)cc1)c1ccc(C)cc1 | inconclusive: 26.9 µM [inhibitor, partial curve, poor fit]
COc1ccc(N2C(=O)CCC2(C#N)c2ccc(Br)cc2)cc1 (configuration not stated) | inactive
COCCNC(=O)c1ccccc1NC(=O)Nc1ccccc1 | active: 26.9 µM
O=C(Nc1ccccc1Cl)c1cccc(NC(=O)c2cccs2)c1 | inconclusive: 26.9 µM [inhibitor, single point]
Fc1cc(F)c2nc(N3CCCC3)sc2c1 | inconclusive: 26.9 µM [inhibitor, single point]
O=C(Oc1cccc(F)c1)c1ccc2c(=O)n3c(nc2c1)CCC3 | active: 15.1 µM
OC[C@H]1O[C@@H](Oc2cc(O)cc(/C=C/c3ccc(O)cc3)c2)[C@H](O)[C@@H](O)[C@@H]1O | active: 19 µM
Fc1ccc(NC(=S)Nc2cccc3cnccc23)cc1 | inconclusive: 37.9 µM [inhibitor, single point]
O=C1N/C(=N\S(=O)(=O)Cc2ccccc2)S/C1=C/c1cc([N+](=O)[O-])ccc1O | inconclusive: 30.1 µM [inhibitor, single point]
CCN(CC)c1ccc(/C=N/N2CCOCC2)c(O)c1 | active: 13.5 µM
CSC1=C(C#N)C(c2ccncc2)C(C(=O)Nc2ccccc2)=C(C)N1 (configuration not stated) | inactive
COc1ccc(OCC(=O)Nc2cccc(-c3nc4ccccc4s3)c2C)cc1 | inconclusive: 0.953 µM [inhibitor, full curve]
COc1cc(/C=N/NC(=O)c2nc(-c3ccccc3)n(-c3ccccc3)n2)ccc1O | inconclusive: 30.1 µM [inhibitor, partial curve]
CCOc1cc(/C=C2/C(=O)ON=C2C)ccc1O | inconclusive: 37.9 µM [inhibitor, partial curve, poor fit]
Cc1cc(C(=O)N/N=C/c2cccn2C)no1 | inconclusive: 21.3 µM [inhibitor, partial curve, poor fit]

Compound | Potency
CCOc1ccc(N(C)S(=O)(=O)c2ccc(C)c(C(=O)OCC(=O)c3c[nH]c4ccccc34)c2)cc1 | inconclusive: 30.1 µM [inhibitor, partial curve, poor fit]
CC1Cc2nc(SCC(=O)Nc3ccc4c(c3)OCO4)n(Cc3ccccc3)c(=O)c2S1 (configuration not stated) | inconclusive: 9.53 µM [inhibitor, partial curve, poor fit]
COc1ccc(Nc2ncnc3ccc(Br)cc23)cc1OC | inconclusive: 42.6 µM [inhibitor, partial curve, poor fit]
CC(C)OCCCNc1ncnc2c1[nH]c1ccccc12 | inconclusive: 16.9 µM [inhibitor, partial curve]
Nc1nc(Nc2ccccc2)nc(NC2CCCCC2)c1[N+](=O)[O-] | inconclusive: 37.9 µM [inhibitor, partial curve, poor fit]
CCOC(=O)CSc1nc2cc3c(cc2cc1C#N)OCO3 | inactive
CCOc1ccc(N(CC(=O)Nc2ccc(C)cc2)S(C)(=O)=O)cc1 | active: 15.1 µM
CCOC(=O)C1=C(COC(=O)/C=C/c2ccc(OC)cc2OC)NC(=O)NC1C (configuration not stated) | inconclusive: 26.9 µM [inhibitor, partial curve, poor fit]
Cc1cc(C(=O)N/N=C/c2sccc2C)no1 | inconclusive: 23.9 µM [inhibitor, single point]
N/C(=N\OC(=O)Cc1ccccc1[N+](=O)[O-])c1ccc(Br)cc1 | inconclusive: 23.9 µM [inhibitor, partial curve, poor fit]
Cc1cc(/N=C/C=C2\N(C)c3ccccc3C2(C)C)n(CCC#N)n1 | inconclusive: 19 µM [inhibitor, partial curve]
O=C(O)c1cc([N+](=O)[O-])ccc1NCc1ccccc1 | inconclusive: 30.1 µM [inhibitor, partial curve, poor fit]
Cc1cc(C=O)c(C)n1-c1cccc(C(=O)O)c1 | inactive
COCC(C)NC(=O)c1cc2c(ccc3ccccc32)oc1=O (configuration not stated) | inconclusive: 30.1 µM [inhibitor, single point]
Cc1nnc(SCC(=O)Nc2nsc(-c3ccc(C(C)(C)C)cc3)n2)s1 | active: 10.7 µM
CCOc1ccc(C(CC(=O)O)NC(=O)C(Sc2ccccc2)c2ccccc2)cc1 (configuration not stated) | inconclusive: 13.5 µM [inhibitor, partial curve]
COc1ccccc1/C=N\Nc1cc(C)nc(-n2nc(C)cc2C)n1 | inconclusive: 15.1 µM [inhibitor, partial curve]
CCc1ccc(NC(=O)C2CCN(S(=O)(=O)c3c(C)[nH]c(=O)[nH]c3=O)CC2)cc1 | inconclusive: 37.9 µM [inhibitor, partial curve, poor fit]
COc1ccc(/C=N/NC(=O)c2ccc3c(c2)OCCO3)c(OC)c1 | active: 9.53 µM
CCOc1ccc(-c2nnc(SCC(=O)NCc3ccccc3)o2)cc1 | inconclusive: 12 µM [inhibitor, partial curve]
Cc1c(NC(=S)N/N=C/c2ccc(O)cc2)c(=O)n(-c2ccccc2)n1C | inactive
COc1ccc(/C=C2\SC(=O)N(CC(=O)Nc3cccnc3)C2=O)cc1OC | inconclusive: 37.9 µM [inhibitor, partial curve, poor fit]
CCOC(=O)c1ccc2c(c1)nc(-c1ccccn1)n2CC | active: 1.51 µM

Compound | Potency
O=C(N/N=C/c1ccc(O)cc1O)c1ccc(NC(=O)C2CCCCC2)cc1 | inconclusive: 37.9 µM [inhibitor, partial curve, poor fit]
CCOC(=O)CSc1nc(C)c2cc(C)c(C)cc2n1 | inconclusive: 37.9 µM [inhibitor, single point]
Cc1ccc2[nH]c(C)c(/C=N/Nc3nc4ccccc4s3)c2c1 | inconclusive: 21.3 µM [inhibitor, single point]
CCOCCCn1c(SCC(=O)NCc2ccco2)nc2c(sc3ccccc32)c1=O | inactive
CC(C)(C)c1ccc(/C=C/C(=O)Nc2cccnc2)cc1 | active: 2.69 µM
CC(C)(C)NC(=O)COc1ccc(-c2ccccc2)cc1 | active: 19 µM
COc1ccc(NC(=O)CN2CCc3ccccc3C2)c([N+](=O)[O-])c1 | inconclusive: 30.1 µM [inhibitor, partial curve, poor fit]
COc1ccc(C(=O)Nc2cc(C)c(NC(=O)c3ccccn3)cn2)cc1 | active: 1.07 µM
COc1ccc(C(=O)OCCOc2ccccc2C(C)=O)c(O)c1 | inconclusive: 37.9 µM [inhibitor, partial curve, poor fit]
Cn1cc(-c2cc(C(=O)O)on2)cn1 | inactive
COc1ccc(N=C2C(=Nc3ccc(OC)cc3)N(c3ccccc3)C(=S)N2C(=O)c2ccc(Cl)cc2)cc1 | inconclusive: 23.9 µM [inhibitor, single point]
CCCc1ccc(-c2cc(NC(=O)CSc3nnc(N)s3)n(-c3ccccc3)n2)cc1 | active: 0.213 µM
COc1ccc(-c2cn3cccnc3n2)cc1NC(=O)c1cc(C)cc(C)c1 | inconclusive: 15.1 µM [inhibitor, partial curve, poor fit]
Cc1cc(Cl)ccc1OCC(=O)N(Cc1ccco1)Cc1ccco1 | inconclusive: 19 µM [inhibitor, partial curve, poor fit]
Cc1ccc(S(=O)(=O)N2CN(CC3CCCO3)c3nc4ccccc4nc32)cc1 (configuration not stated) | inactive
O=C(c1ccccc1)n1nnc2ccccc21 | inconclusive: 26.9 µM [inhibitor, single point]
Cc1cc(=O)n2[nH]c(-c3cccnc3)nc2n1 | active: 16.9 µM
CCOC(=O)C1=C(C)N=c2s/c(=C/c3cccc([N+](=O)[O-])c3O)c(=O)n2C1c1cc(OC)c(OC)c(OC)c1 (configuration not stated) | inconclusive: 37.9 µM [inhibitor, partial curve, poor fit]
NS(=O)(=O)c1cccc(NC(=O)c2cc(-c3cccs3)nc3ccccc23)c1 | inconclusive: 30.1 µM [inhibitor, single point]
CCc1cc2c(=O)c(-c3nc4ccccc4n3C)c(CCCC(=O)O)oc2cc1OC(=O)C(C)(C)C | inconclusive: 13.5 µM [inhibitor, partial curve, poor fit]
C[N+](C)(CCOc1ccccc1)Cc1ccccc1 (tested in a mixture with another compound) | inconclusive: 30.1 µM [inhibitor, partial curve, poor fit]
